# The list shows a part of the results.
# What was measured:
# HSkMC = human skeletal muscle cells; assay: cytotoxicity call (relative viability < 0.9); conditions: 10 µM
# HepG2 = assay: cytotoxicity call (relative viability < 0.9); conditions: 10 µM
# S. aureus RN4220 = assay: growth inhibition call (relative growth <= 0.2); conditions: 50 µM
Compound,cytotoxicity call (HSkMC),cytotoxicity call (HepG2),growth inhibition call (S. aureus RN4220)
COC[C@H](C)N1C[C@H](C)[C@@H](CN(C)Cc2ccc(Oc3ccccc3)cc2)Oc2c(NC(=O)c3ccncc3)cccc2C1=O,inactive,active,inactive
COCCOC(=O)N1C(=O)[C@@]2(c3cc(C#CCC(C(=O)OC)C(=O)OC)ccc31)[C@H](c1ccccc1OCCO)N1[C@H](c3ccccc3)[C@H](c3ccccc3)OC(=O)[C@H]1[C@@H]2C(=O)Nc1nc2ccccc2s1,inactive,inactive,inactive
CCS(=O)(=O)N1C[C@]2(C1)CN([C@H](CO)c1c2c2ccc(cc2n1C)OC)C(=O)CN1CCOCC1,inactive,inactive,inactive
C[C@@H]1CN([C@H](C)CO)C(=O)Cc2cc(NC(=O)C3CC3)ccc2O[C@@H]1CN(C)Cc1ccc(C(=O)O)cc1,inactive,inactive,inactive
C[C@@H]1CN([C@H](C)CO)C(=O)Cc2cc(NC(=O)CCCCCC(=O)Nc3ccccc3N)ccc2O[C@H]1CN(C)C(=O)Nc1ccc(F)cc1,inactive,inactive,inactive
C[C@@H]1CN([C@@H](C)CO)C(=O)Cc2cc(NC(=O)Cc3cn(C)c4ccccc34)ccc2O[C@@H]1CN(C)Cc1ccc(C(F)(F)F)cc1,inactive,active,inactive
C[C@H](CO)N1C[C@H](C)[C@H](CN(C)S(C)(=O)=O)Oc2c(NS(=O)(=O)c3ccccc3)cccc2C1=O,inactive,inactive,inactive
CC(C)NC(=O)N(C)C[C@H]1Oc2ccc(NC(=O)Nc3ccc4c(c3)OCO4)cc2CC(=O)N([C@H](C)CO)C[C@H]1C,inactive,inactive,inactive
CCOC(=O)CN1CCN(C=O)CC1,inactive,active,inactive
COCC#Cc1ccc2c(c1)O[C@@H](CN(C)S(=O)(=O)c1ccc(C)cc1)[C@@H](C)CN([C@@H](C)CO)S2(=O)=O,inactive,inactive,inactive
CS(=O)(=O)Cc1ccc(C(=O)O)cc1,inactive,inactive,inactive
C[C@H](CO)N1C[C@H](C)[C@@H](CN(C)C(=O)Nc2ccc(C(F)(F)F)cc2)Oc2ncc(C#C[C@@H](C)O)cc2C1=O,inactive,inactive,inactive
Cc1noc(C)c1S(=O)(=O)Nc1cccc2c1O[C@@H](CN(C)C(=O)NC(C)C)[C@@H](C)CN([C@@H](C)CO)C2=O,inactive,inactive,inactive
O=C(C[C@H]1C=C[C@H](NC(=O)CN2CCOCC2)[C@H](CO)O1)NC1CCC1,inactive,inactive,inactive
C[C@H](CO)N1C[C@H](C)[C@@H](CN(C)Cc2ccc(C(=O)O)cc2)OCCCC[C@H](C)Oc2ccc(NC(=O)CCC(F)(F)F)cc2C1=O,inactive,inactive,inactive
Cc1ccc(S(=O)(=O)N(C)C[C@H]2Oc3ncc(Br)cc3C(=O)N([C@@H](C)CO)C[C@@H]2C)cc1,inactive,inactive,inactive
COc1ccc(N2C(=O)N3CCc4cc(OC)c(OC)cc4[C@@H]3[C@@H](Cc3ccccc3)[C@H]2COC(=O)NCCCCCC(=O)NO)cc1,inactive,inactive,inactive
C[C@@H]1CN([C@H](C)CO)C(=O)Cc2cc(NC(=O)CCN3CCOCC3)ccc2O[C@@H]1CN(C)CC1CC1,inactive,inactive,inactive
C[C@@H]1CN([C@@H](C)CO)C(=O)Cc2cc(NC(=O)C3CC3)ccc2O[C@H]1CN(C)S(=O)(=O)c1ccccc1,inactive,inactive,inactive
O=C(C[C@H]1CC[C@H]2[C@@H](COC[C@@H](O)CN2S(=O)(=O)c2ccc(Cl)cc2)O1)NCCN1CCCC1,inactive,inactive,inactive
Cc1noc(C)c1S(=O)(=O)Nc1ccc2c(c1)CC(=O)N([C@H](C)CO)C[C@H](C)[C@@H](CN(C)S(=O)(=O)c1ccc(Cl)cc1)O2,inactive,inactive,inactive
C[C@@H]1CN([C@H](C)CO)S(=O)(=O)c2ccc(-c3cncnc3)cc2O[C@H]1CN(C)C(=O)Cc1ccccc1,inactive,inactive,inactive
COCCn1cc2c(n1)[C@H](CNC(=O)CS(C)(=O)=O)OCC2,inactive,inactive,inactive
COc1ccc(NC(=O)Nc2ccc3c(c2)C(=O)N([C@H](C)CO)C[C@H](C)[C@@H](CN(C)C(=O)Nc2c(C)noc2C)OCCCC[C@@H](C)O3)cc1,inactive,inactive,inactive
C[C@H](CO)N1C[C@H](C)[C@@H](CN(C)CC2CC2)OCCCC[C@H](C)Oc2ccc(NC(=O)Cc3ccccc3)cc2C1=O,inactive,inactive,inactive
CCCC#Cc1ccc2c(c1)O[C@@H](CN(C)C(=O)c1cnccn1)[C@H](C)CN([C@H](C)CO)S2(=O)=O,inactive,inactive,inactive
C[C@H]1CCCCO[C@H](CN(C)C)[C@@H](C)CN([C@@H](C)CO)C(=O)c2cc(NS(=O)(=O)c3cn(C)cn3)ccc2O1,inactive,inactive,inactive

Compound,cytotoxicity call (HSkMC),cytotoxicity call (HepG2),growth inhibition call (S. aureus RN4220)
CSc1sc(C)cc1/C=N/O,inactive,inactive,inactive
CC(C)C[C@@H]1NC(=O)[C@@H]2C[C@H](C(=O)NCCCC[N+](C)(C)C)[C@H](c3cccc(OCCO)c3)N2C1=O,inactive,inactive,inactive
Nc1ncn(Cc2ccccc2)n1,inactive,inactive,inactive
C[C@@H]1CN([C@H](C)CO)C(=O)CCCn2cc(nn2)CO[C@@H]1CN(C)S(=O)(=O)c1ccc(Cl)cc1,inactive,inactive,inactive
C[C@H](CO)N1C[C@H](C)[C@@H](CN(C)C(=O)Nc2ccccc2C(F)(F)F)OCc2ccccc2-c2c(n(C)c3ccccc23)C1=O,inactive,active,inactive
C[C@H](CO)N1C[C@H](C)[C@@H](CN(C)CC2CC2)Oc2ccc(NS(=O)(=O)c3ccc(F)cc3)cc2CC1=O,inactive,inactive,inactive
COCC#Cc1cnc2c(c1)C(=O)N([C@H](C)CO)C[C@H](C)[C@@H](CN(C)C(=O)Nc1ccccc1OC)O2,inactive,inactive,inactive
C[C@@H]1CCCCO[C@H](CN(C)C(=O)Cc2ccccc2)[C@@H](C)CN([C@H](C)CO)C(=O)c2cc(NC(=O)c3ccccc3)ccc2O1,inactive,inactive,inactive
C[C@@H]1CN([C@H](C)CO)C(=O)c2cc(NC(=O)NC3CCCCC3)ccc2O[C@@H](C)CCCCO[C@@H]1CN(C)Cc1ccncc1,inactive,inactive,inactive
C[C@H](CO)N1C[C@H](C)[C@@H](CN(C)C(=O)CCC(F)(F)F)OCCCC[C@H](C)Oc2ccc(NS(=O)(=O)c3ccccc3)cc2C1=O,inactive,inactive,inactive
C[C@@H]1CN([C@@H](C)CO)S(=O)(=O)c2ccc(-c3ccncc3)cc2O[C@H]1CN(C)C(=O)c1cccc(F)c1,inactive,inactive,inactive
CO[C@H]1CN(C)C(=O)c2ccc(NS(C)(=O)=O)cc2OC[C@H](C)N(C(=O)C2CCOCC2)C[C@@H]1C,inactive,inactive,inactive
COc1ccc(S(=O)(=O)N(C)C[C@@H]2Oc3ccc(NS(C)(=O)=O)cc3CC(=O)N([C@H](C)CO)C[C@@H]2C)cc1,inactive,inactive,inactive
C[C@@H]1CCCCO[C@H](CN(C)CC2CCCCC2)[C@@H](C)CN([C@H](C)CO)C(=O)c2cc(NC(=O)Nc3ccccc3)ccc2O1,inactive,inactive,inactive
C[C@H]1CN([C@@H](C)CO)C(=O)c2cccc(NC(=O)c3ccc(-c4nccs4)cc3)c2O[C@H]1CN(C)C(=O)Nc1cccc2ccccc12,inactive,inactive,inactive
COCCNC(=O)C[C@@H]1CC[C@@H]2[C@H](COC[C@@H](O)CN2C(=O)Nc2ccc3c(c2)OCO3)O1,inactive,inactive,inactive
COc1ccc(S(=O)(=O)N(C)C[C@H]2Oc3ccc(NS(=O)(=O)c4ccccc4)cc3CC(=O)N([C@H](C)CO)C[C@H]2C)cc1,inactive,inactive,inactive
CCCNC(=O)N(C)C[C@@H]1Oc2cc(-c3ccccc3F)ccc2S(=O)(=O)N([C@@H](C)CO)C[C@@H]1C,inactive,inactive,inactive
C[C@@H]1CCCCO[C@H](CN(C)C(=O)Nc2ccc(C(F)(F)F)cc2)[C@H](C)CN([C@@H](C)CO)C(=O)c2cc(NS(=O)(=O)c3cn(C)cn3)ccc2O1,inactive,inactive,inactive
COc1ccc(-c2cnc3c(c2)C(=O)N([C@H](C)CO)C[C@@H](C)[C@@H](CN(C)C(=O)C2CCOCC2)O3)cc1,inactive,inactive,inactive
COc1ccc(NC(=O)Nc2cccc3c2O[C@H](CN(C)CC2CCCCC2)[C@@H](C)CN([C@H](C)CO)C3=O)cc1,inactive,inactive,inactive
C[C@H]1CN([C@@H](C)CO)C(=O)c2cccc(NC(=O)c3ccc(-c4nccs4)cc3)c2O[C@H]1CN(C)Cc1ccc(Oc2ccccc2)cc1,inactive,inactive,inactive
C[C@@H]1CN([C@H](C)CO)C(=O)c2cccc(NC(=O)Nc3ccc(F)cc3)c2O[C@@H]1CN(C)S(C)(=O)=O,inactive,inactive,inactive
COc1ccc(S(=O)(=O)Nc2cccc3c2O[C@@H](CN(C)S(=O)(=O)c2ccccc2)[C@H](C)CN([C@@H](C)CO)C3=O)cc1,inactive,inactive,inactive
C[C@@H]1CN([C@@H](C)CO)C(=O)c2cc(NC(=O)c3ccccc3)ccc2O[C@@H](C)CCCCO[C@H]1CN(C)C(=O)C1CCCCC1,inactive,inactive,inactive
CO[C@@H](CN(C)S(=O)(=O)c1ccc(F)cc1)[C@@H](C)CN([C@H](C)CO)S(=O)(=O)c1cccc(Cl)c1,inactive,inactive,inactive
O=C(NCC(F)(F)F)[C@@H]1[C@@H](CO)[C@@H]2Cn3c(cccc3=O)[C@H]1N2C(=O)C1CCC1,inactive,inactive,inactive
